# Experimental data as given in the supplement of paper PMC11417369.
# The list shows a part of the results.
# Tested on: PfAP2-HC AP2 domain (GST-tagged)
# Test: gcPBM binding intensity (ln(normalized median fluorescence intensity)); higher = stronger DNA binding
# How it was run: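 Binding intensity is the highest Masliner-normalised natural-log median intensity over replicate spots in either probe orientation. To obtain it, GST-tagged P. falciparum DNA-binding domains made in E. coli were incubated for 1 h on an Agilent 4 × 180k array of primer-extended double-stranded 36-bp intergenic genomic probes plus negative controls. Detection used Alexa488 anti-GST antibody with scanning at 488 nm.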
row,Sequence,gcPBM binding intensity (ln)
1,AATATTCAATATAAAGTGCATTATTGTGCCCCTAAT,9.44
2,TTTTTATTGTTATACTTATATTATTTTATGATTAAA [XGTACX_negctrl_site262],9.51
3,ATAAAAATCAAAAAAAATACATAATAGTAATAATAA [GTGCAC_negctrl_site481],9.79
4,TTTTTTTTTTTTTGGGGTACATTTTAATTAATATTA [XGTACX_site4866],9.61
5,TAAAATATAATTAGCACACATATATAAAATATATAT [CACACA_site4093],9.67
6,GTTCAAAATATGAACACACACATATATATATATATA [CACACA_site2057],10.1
7,ATCTACATATATTATTGTACATTGTTAAAAATTTAT [XGTACX_site7769],9.67
8,TTTCGTAATATGCGTGTGCACAATGAGTCCATATCT,10
9,GTAAATATGTTTATTAGTACACATATGAAAATAAAT [XGTACX_site5820],9.84
10,ATATATTGTATGTGCTCACACATGTTTCGATATTAT [CACACA_site4336],9.81
11,GTTGTTTCTATAAATTGTACTTAAATATAATTATAT [XGTACX_site585],9.7
12,TCTTTTTTTTTACATACTTTTTTCCTTTTTTTTTTA [CACACA_negctrl_site1429],9.71
13,ACGCACGAAATAAATACATGCATATTGTAAAAATTA [TGCATGCA_site310],9.48
14,GGGAATATATTCAATTGTACATTCTTATTTTATCCA [XGTACX_site8480],9.62
15,TCTTGTAGATATATTTGTACATATATTTATGGGTAT [XGTACX_site1139],9.61
16,CTAGACTTTTTACAATGTACATATTTATGTATTATT [XGTACX_site1833],9.86
17,TTTTTTCATAAATAATGTACATATATATATATATAT [XGTACX_site3620],9.73
18,ATATTATTTATAAGTTGTACGGTATAATATAATATA [XGTACX_site5371],9.58
19,AAAAAATATATATTAACACACACACTAATAAAAAAA [CACACA_site8366],10.4

row,Sequence,gcPBM binding intensity (ln)
1,AAAATTTTTTACTTTACACACATTTTGTATATTTTG [CACACA_site1730],10
2,TATTTAATGCAAAAACGTACATAAATAACATTCACA [XGTACX_site5356],9.7
3,TATATATATATTAGTGGTACAAGATTTTTTTCTTTT [XGTACX_site4619],9.54
4,TATAAACACCCATATAAACACACATACATACATACA [CACACA_site8791],10.2
5,AACTTTGAGACATAGTGTACTTACACAATCTTAATA [XGTACX_site3712],9.63
6,ACATTTTTTTTTTTTTTTCTTTTTCTTTTTCTTTTT [CACACA_negctrl_site1295],9.55
7,CATATTTGATACAAGTGTACTTTATTTAAAAATTCT [XGTACX_site8408],9.4
8,TTTCAAAAAAATAGCTATATTTATATTAATGCACGA [TGCATGCA_negctrl_site63],9.47
9,TAATAAAAATAAAATTGTACTAATAACATTTCATTA [XGTACX_site3703],9.45
10,TATATAACTGTCTTCAGTACACAATAAATAAAAATA [XGTACX_site8856],9.59
11,AAAGGTGTATATAATACACACGTGTGATTAAAATTG [CACACA_site8104],10.1
12,GAAAAAATAAAATAAAGTACATAACTATAATAAAAA [XGTACX_site4807],9.89
13,CTTACACCCATATATACACACATGTATATTTTATAT [CACACA_site4462],10.1
14,TACTCCTCAATATTATGTACATATAATAGTTATAAA [XGTACX_site8551],9.56
15,ATATATAAACACTCTTGTACATAATAATGTATATAT [XGTACX_site2451],9.73
16,TCGTATCTATTGAGGGTGCCTCTATAATTGATACAA [GTGCAC_site9636],9.08
17,TAATATAATATATGCACACAAATATGTATTTATGTG [CACACA_site5210],10.3
18,AGTAAATAATAGATCGCATGTAATAACTAGTAGGAA [TGCATGCA_site948],9.89
19,ACAATTGAAGAAATACGTACATAAAGAAAAACTAGT [XGTACX_site820],9.92

row,Sequence,gcPBM binding intensity (ln)
1,ATTATAAAGACATATACACACATACGTACATACATA [CACACA_site5893],10.1
2,AGTATAAAATAAATGTGTACACAAGAAAATATGTTA [XGTACX_site8381],10.1
3,AAAATCACAAGACACACACACACAAAAAAAAAAAAA [CACACA_site6791],11.5
4,ATATATATATGTATGTGTCCACAAGGAGATATATAT [XGTACX_site783],10
5,AAAATATTTTAATGTTGTACATTAATATATTATATA [XGTACX_site2513],9.5
6,TGTATTAAATTTTGAACACACAAAATAAAACATATA [CACACA_site1672],9.7
7,TACATAAATATATGTGTGCACAATTTCGTATATTTA [GTGCAC_site9859],10
8,TGTACATTCGGAGTAAAAAAAAATTTATACAATTAC [CACACA_negctrl_site1451],9.38
9,AACAGATAAAAGGGTACACACATATATACCTGTACA [CACACA_site4285],9.87
10,AAACAGAAGACATATACACACATACAAAAAAGTGCA [CACACA_site4699],10.2
11,TTCTCATTCAAATTAGTGCATTTTTGTTATTACATT,9.8
12,TGTGTATATATATAATGTACATAAAGATTTATATAT [XGTACX_site5835],9.66
13,TTATTTATATATTCATGTACATAACATTTCATTCGA [XGTACX_site4388],9.51
14,TTTTAAGAATAAAATTGTACACATACATGTGTTCGC [XGTACX_site438],9.66
15,ATATAAATTTTTTAGAGTACTAAAATAAAATAATAT [XGTACX_site2118],9.57
16,TTTTCTAAAATGAATTGTACTTGATTATTTAAAAAA [XGTACX_site6097],9.25
17,TAAAAAATGAAAAAGCGTACATGTTTTCTTATATTA [XGTACX_site1722],9.62
18,ATACTAAAAAGTATCTGTACTTATTTTAAAAATAAA [XGTACX_site4116],9.34
19,TAAATAATTAAAATATGTACTGAAATGTAATTATTT [XGTACX_site5894],9.64
